# The list shows a part of the results.
# System: PfSIP2 AP2 domain 1 (GST-tagged)
# Experiment: gcPBM binding intensity (ln(normalized median fluorescence intensity)); higher = stronger DNA binding
# Method in brief: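 For binding intensity, the highest Masliner-normalised natural-log median intensity across replicate spots of either probe orientation was taken. Protein bound to the array was stained with Alexa488 anti-GST antibody and scanned at 488 nm. The protein, GST-tagged P. falciparum DNA-binding domains from E. coli at about 25 μg on average, had been applied for 1 h to an Agilent 4 × 180k array of primer-extended double-stranded 36-bp intergenic genomic probes and negative controls.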
row,Sequence,gcPBM binding intensity (ln)
1,AGTCTGAATAAAATTACACACATATACAGATATATA [CACACA_site5054],6.91
2,ATATCATTTTCTAGCACACACATTGTTATTACCTTG [CACACA_site902],7.3
3,TTTCTAAAAATAAGAACACACACATATAAGCATATA [CACACA_site8714],7.01
4,TTTTTTTAAATATACACACACATTTATACAGATATA [CACACA_site5811],7.12
5,TATTAGAACATATATGCATGCAATAGATATTCCAAT [TGCATGCA_site297],6.81
6,TATGTATAATTTCATTGTACTTTTGATATTATCATA [XGTACX_site280],6.96
7,TATGTAACAAAAAAAAGTACACATATATATAGTGTA [XGTACX_site7772],6.99
8,AAGATAATCACAAAATGTACAGGAAATATGACAACC [XGTACX_site3607],7.33
9,ACTGCGTTTTTACACGCGCACTGCAATGAACAATAT,8.05
10,AATGGTATAAACAATACACACATAATATATATATTG [CACACA_site4997],6.77
11,AAGAAAAAGGAACGGAAAAACAAACAAGGGGCCCAA [TGCATGCA_negctrl_site4],6.66
12,TTTTCTAAATTAATAATACACACTTGCTAAAATCAT [CACACA_site3207],6.91
13,TATATGTTTTATAGTACACACATAAATGGACATACT [CACACA_site2191],7.06
14,TGAATTTAGATATATACACACAAAAGTATATACAAT [CACACA_site2804],6.83
15,CCCACTAAAAAACACACACACACACCCATATATATA [CACACA_site6140],7.53
16,ATATGTATTAAGTGTACACATATAATCTATCTTGTT [CACACA_site5329],7.29
17,TTTTTTTTATATAGTAGTACTAATTAGAATTTTTAT [XGTACX_site7476],6.78
18,TACATACATACATACACACATACATATGTATATATA [CACACA_site2480],7.84
19,TAATGCCATAATACGTGTACTTAATATATTAGAACA [XGTACX_site5809],7.23

row,Sequence,gcPBM binding intensity (ln)
1,CTCAAATGTTATTGTAGTACCTAAAAAATATATTCT [XGTACX_site1970],6.97
2,GTTGGTAGGCGGTACGGTACACGTAAAGTTTTTCTT [XGTACX_site7706],6.64
3,ATAAATGACAAATTAACACACATATATTATATATAT [CACACA_site3899],7.63
4,ACCATATAAATAAACACACACACACGGATATAAATA [CACACA_site7157],7.21
5,AACTCATAAAATAATGGTACACAAAAAAAATAAATA [XGTACX_site7648],6.99
6,CAAGGAACCAGACACACACACATAAATGTATTTATA [CACACA_site6491],6.97
7,TTTTTTTTTTTCTTTTGTACGTATAAAATTATATAA [XGTACX_site2453],7.01
8,TTAGGCAAGGCGGGGGGTACGTTTTTATATAATTAT [XGTACX_site8029],9.53
9,TTAGATTTATAAGTGTGTACGTAAAATACTTAATAA [XGTACX_site8246],7.03
10,TGTGTGTGCTTATTTTGTACATATTAGGTAAATATT [XGTACX_site6329],7.21
11,TTTATGGAATAATCACGTACACACAAGAAAAAAAAA [XGTACX_site985],7.06
12,TTTTTATCTAATCTAATATTATATTATACATATAAT [XGTACX_negctrl_site275],6.92
13,ACTAAACGAATAAATTGTACAAAGAAATATATTCAT [XGTACX_site6766],7.06
14,ACTACGTGGATTAGTTCAAGGGAACACGTCCTATAC [CACACA_negctrl_site1427],6.78
15,CAACAAAAGTTATTTACACACAAAAGGCAAGGAAAT [CACACA_site7013],7.24
16,AAAGGAAATAAAAACGCACACAGAAATAATATCTAT [CACACA_site457],6.89
17,ATATTTCATTTTTGTACACACAACGTTGGAGGGTTT [CACACA_site3043],7.18
18,TAAAAAATTACATATTGTACAGGCAAAATTACACAT [XGTACX_site1152],6.93
19,TCATATAAATACACGTGTACATATATATATTACAGT [XGTACX_site1954],7.4

row,Sequence,gcPBM binding intensity (ln)
1,AAAAAATATATATGCACACACAAAAAAACAAATTAA [CACACA_site1278],7.91
2,AGTTTGCATATGGAAGTGCATTACCTTGAACATCAT,9.2
3,AATATAAAAAATAGTTGTACTATATTTAAATATGAC [XGTACX_site2937],7.1
4,AAAAAAAAAAAATAGACACACATATTATATATATAT [CACACA_site1419],8.89
5,TATTATTCTATACATTGTACATATTTTATAGTATGT [XGTACX_site73],7.07
6,TTTAAAACCTTACATACACACAAATATGTAAATATA [CACACA_site6464],6.98
7,TTCATATAACCTTATAGTACATAATTAAAAATATAA [XGTACX_site6328],7.16
8,AAAAAAAAAAAAAAAACACACATATAGGTATAAATA [CACACA_site7528],7.54
9,CACGCATATATACATACATGCATATATACATCCATG [TGCATGCA_site667],6.99
10,ATATCTATAATAAATACACACATTTATATAGATAAA [CACACA_site7518],7.02
11,AACAGCATTATTTCTTATTTTTTTTTTGATATATTT [GTGCAC_negctrl_site114],6.75
12,AAACTTGACAGACACACACACACATATATAAAAAAA [CACACA_site757],7.33
13,GTTATATTATTCATACGTACCTATATTTCTATTAAC [XGTACX_site3447],7.46
14,TTTTCCTTATATTATGCATGCAGGGTTTGACATTAT [TGCATGCA_site826],7.33
15,ATGTGTTGGGAAAAGGCATGCACTTTTTTTTTTTTT [TGCATGCA_site707],9.57
16,TGATAACCTCACAAATGTACGTACGGGGCTAGCATT [XGTACX_site4157],6.84
17,ACACATACTAAAATGTTGTGAAATATGATAATGTGA [CACACA_negctrl_site851],6.94
18,TTATAATAATAGAACTTTATGTAGAAAAAAGGAAAA [XGTACX_negctrl_site116],6.7
19,CACAGACACGGACACACACACACACCCACATATATA [CACACA_site4355],7.4
